Here are results for 20 sequences from PMC5892938.

The other results are listed elsewhere or left out. At the low end of the ranking the order means little.

This experiment deals with GST-SBP-SLBP (stem-loop binding protein) (UniProt Q14493). Nature of the experiment: targeted RNA Bind-n-Seq.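 Note: DESeq read counts versus GST-SBP nonspecific binding control pulldown.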 The following applies: RBNS binding buffer: 25 mM Tris pH 7.5, 150 mM KCl, 3 mM MgCl2, 0.1% Tween, 0.5 mg/mL BSA, 1 mM DTT; 27 nM protein, 750 pM RNA pool; temperature not stated; high values mean tight binding.
Regarding “GGUCACGUCUCAAUCAACUCAACUUCAGGAGUUUGCUCCUGCUAACUCAACAGCUCGCAGUCAAG”, the binding signal (log2 fold change) was determined as 0.173. Take “GGUCACGUCUCAAUCAACUCUAUGGCAGGAGUUUACUCCUGGAAUCUCAACAGCUCGCAGUCAAG”: the binding signal (log2 fold change) is -0.0279.

In the case of “GGUCACGUCUCAAUCAACUCAGUUUCCAGGGAAACCCCUGGUUUUUUCAACAGCUCGCAGUCAAG”, the binding signal (log2 fold change) was -0.156. The same measure for “GGUCACGUCUCAAUCAACUCUAUCGAGGGGGGGAAAACCCCUUUACCCUCUACAUCAACAGCUCGCAGUCAAG”: -0.257.

With “GGUCACGUCUCAAUCAACUCAAAAGAGGGGGGGAAAACCCCUUUACCCUCAUCUUCAACAGCUCGCAGUCAAG”, the binding signal (log2 fold change) was determined as 0.535.

For “GGUCACGUCUCAAUCAACUCGUUUUCAGGAGUUUCCUCCUGCAUUUUCAACAGCUCGCAGUCAAG”, the binding signal (log2 fold change) amounted to 0.013. The figure for “GGUCACGUCUCAAUCAACUCAGUUCCAGGAGUUUACUCCUGCUUAUUCAACAGCUCGCAGUCAAG” is 0.0709. The same measure for “GGUCACGUCUCAAUCAACUCUUCCUCCAGGGAAAACCCUGGCAAACUCAACAGCUCGCAGUCAAG”: -0.204. The same measure for “GGUCACGUCUCAAUCAACUCUACUCCCAGGGAAAGCCCUGGCAAACUCAACAGCUCGCAGUCAAG”: -0.256. In the case of “GGUCACGUCUCAAUCAACUCUUCUUCAGGAGUUUUCUCCUGCAUACUCAACAGCUCGCAGUCAAG”, the binding signal (log2 fold change) came to 0.0695. “GGUCACGUCUCAAUCAACUCAACUUCAGGAGUUUGCUCCUGCUUUCUCAACAGCUCGCAGUCAAG”: the binding signal (log2 fold change) is -0.0163. As for “GGUCACGUCUCAAUCAACUCUUUCCCCAGGGAAAACCCUGGUUAUGUCAACAGCUCGCAGUCAAG”, the binding signal (log2 fold change) was -0.209.

Take “GGUCACGUCUCAAUCAACUCUAUUUCAGGAGUUUUCUCCUGCAUAUUCAACAGCUCGCAGUCAAG”: the binding signal (log2 fold change) turned out to be 0.0862. The same measure for “GGUCACGUCUCAAUCAACUCAUCGGCCAGGGAAAACCCUGGGAAUUUCAACAGCUCGCAGUCAAG”: -0.0757; for “GGUCACGUCUCAAUCAACUCUAUUCCAGGAGUUUCCUCCUGUUAAUUCAACAGCUCGCAGUCAAG”: 0.0551. The same measure for “GGUCACGUCUCAAUCAACUCAAUCCCCAGGGAAACCCCUGGUAAUCUCAACAGCUCGCAGUCAAG”: -0.306; for “GGUCACGUCUCAAUCAACUCUUUCGAGGGGGGGAAAACCCCUUUGCCCUCACUAUCAACAGCUCGCAGUCAAG”: 0.2; for “GGUCACGUCUCAAUCAACUCAAUAGAGGGGGGGAAAACCCCUUUGCCCUCCACAUCAACAGCUCGCAGUCAAG”: 0.0561. The same measure for “GGUCACGUCUCAAUCAACUCUUCUUCCAGGGAAAUCCCUGGCAUAUUCAACAGCUCGCAGUCAAG”: 0.125. As for “GGUCACGUCUCAAUCAACUCCAACGAGGGGGGGAAAACCCCUUUACCCUCAUCCUCAACAGCUCGCAGUCAAG”, the binding signal (log2 fold change) was -0.312.
